The whole screen tested about 52,000 compounds, of which about 1,700 (3.3%) were called active. No stated cut-off is given here; in the data, active means survival mostly below about 52% (no sharp cut-off); inactive means mostly above about 56%. The list shows a part of the results.
Tested on: Wild type
Experiment: growth inhibition of S. aureus wild type versus tarO mutant, primary screen, teichoic acid synthesis inhibitors, RN4220, OD600 (AID 463173)
Conditions: S. aureus RN4220 wild type/DeltatarO growth, OD600, 18 h, stronger effect = lower value, screened at 18.75 µg/mL (by protocol)

| SMILES | survival |
| --- | --- |
| CCOC(=O)c1c(NC(C)=O)c2c3c(sc2n1Cc1nc(-c2cccc(Cl)c2)oc1C)CCCC3 | inactive: 79% |
| Cc1c(Cl)cccc1NC(=O)Cn1c(CCC(=O)O)ccc1-c1cccs1 | inactive: 82% |
| CC(C)(C)OC(=O)N1CCC(c2c(C(=O)N3CCCCC3)cnn2-c2ccc(Cl)cc2)CC1 | inactive: 65% |
| COc1ccc(OC)c(-c2nnc3n(Cc4ccc(C)cc4)c(=O)c4ccccc4n23)c1 | inactive: 86% |
| Cc1c(-c2ccc(Br)cc2)c(=O)oc2ccc(OC(=O)N3CCOCC3)cc12 | inactive: 75% |
| CCN(CC)C(=O)CSc1nc(-c2ccccc2F)nc2c1Cc1c(CO)cnc(C)c1O2 | inactive: 111% |
| COC(=O)c1ccccc1NC(=O)CSc1nc2ccsc2c(=O)n1CCC(C)C | inactive: 78% |
| c1ccc(CSc2ncnc3c2cnn3-c2ccccc2)cc1 | inactive: 104% |
| CCOc1cc(C(=O)NCCc2csc3nc(-c4ccc(C)cc4)nn23)cc(OCC)c1OCC | inactive: 71% |
| C=Cc1ccc(Cn2c(C)c(CNCc3cccc(Br)c3)c(C(=O)O)c2C)cc1 | inactive: 82% |
| Cc1cc(C)nc(SCC(=O)Nc2nc(=O)c3ccccc3s2)n1 | inactive: 104% |
| COc1ccc(Cc2nc3ccccc3[nH]c2=O)cc1 | inactive: 68% |
| Cc1c(Cl)cccc1-c1ccc(C(=O)Nc2ccc(F)cc2)o1 | active: -1% |
| CCOC(=O)C1=C(C)NC(=O)NC1c1ccccc1 (stereo not given) | inactive: 115% |
| Cc1cccc(Cn2c(CNS(=O)(=O)c3ccc4c(c3)CCCC4)nc3cccnc32)c1 | inactive: 81% |
| CCCCN(C(=O)C1CCC1)c1nnc(-c2ccncc2)s1 | inactive: 94% |
| O=C(c1ccccc1Cl)N1c2ncnn2C2(CCCCC2)[C@@H]2CCCC[C@@H]21 | inactive: 92% |
| COC(=O)c1ccc(OCC2c3cc(OC)c(OC)cc3CCN2C(=O)COc2ccc(Cl)cc2)cc1 (stereo not given) | inactive: 77% |
| CCOC(=O)c1c(S(=O)(=O)N2CCCC(C(=O)NCc3ccc(Cl)cc3)C2)c(C)n(C)c1C (stereo not given) | inactive: 73% |
| COc1ccc(F)cc1S(=O)(=O)NCCc1csc2nc(-c3cccc(C)c3)nn12 | inactive: 73% |
| Cc1cccc(NC(=O)CCS(=O)(=O)c2ccc3c(c2)n(C)c(=O)c(=O)n3C)c1C | inactive: 138% |
| CCOC(=O)c1noc2ncn(CC(=O)Nc3ccc(C)c(F)c3)c(=O)c12 | inactive: 72% |
| CCc1cccc(NC(=O)C2CCN(C(=O)c3cnn(-c4ccccc4)c3-n3cccc3)CC2)c1 | inactive: 83% |

| SMILES | survival |
| --- | --- |
| Nc1nc(Nc2ccccc2F)sc1C(=O)c1ccc(Cl)cc1 | active: -7% |
| CCOC(=O)C1CCCN(C(=O)c2nn(-c3ccc(OC)cc3)c(=O)c3c2c2ccccc2n3C)C1 (stereo not given) | inactive: 125% |
| Cc1ccc(C(=O)NCC(=O)O)o1 | inactive: 103% |
| CCc1ccc(-n2nc(C)c3c(C)cc(=O)n(CC(=O)N4CCCc5ccccc54)c32)cc1 | inactive: 84% |
| O=c1cc(-c2ccccc2)n2c(SCc3ccccc3)nnc2[nH]1 | inactive: 74% |
| Cc1ccc(-n2c(=O)c3c(C)c(C(=O)N(C)C)sc3n(CC(=O)C(C)(C)C)c2=O)cc1C | inactive: 94% |
| Cc1c(C(=O)N(Cc2ccccc2F)C2CCS(=O)(=O)C2)oc2ccc(F)cc12 (stereo not given) | inactive: 100% |
| Cn1c(=O)c2c(nc(NCc3ccccc3)n2Cc2ccccc2)n(C)c1=O | inactive: 79% |
| Cn1c(=O)c2c(SCC(=O)NCc3ccco3)nc(-c3ccccc3)nc2n(C)c1=O | inactive: 88% |
| CCOC(=O)c1cnc2ccc(OC)cc2c1NCCc1ccccc1 | active: 0% |
| COc1ccc(N2CC(NC(=O)COc3ccccc3)CC2=O)cc1OC (stereo not given) | inactive: 73% |
| c1ccc(CCCNc2ncccn2)cc1 | inactive: 101% |
| CCc1ccc(-n2nc3cc(C)c(NC(=O)c4cccc5ccccc45)cc3n2)cc1 | inactive: 62% |
| Cc1cccc(CNC(=O)Cn2nc(C)n3c(cc4cc(F)ccc43)c2=O)c1 | inactive: 75% |
| CN(c1ncnc2onc(-c3cccc(Cl)c3)c12)C1CCCCC1 | active: -1% |
| Cc1ccc(-n2nc(CO)c(C(=O)NCc3ccccn3)n2)cc1C | inactive: 113% |
| C=CCNC(=O)c1ccccc1NC(=O)C1COc2ccccc2O1 (stereo not given) | inactive: 103% |
| COc1ccccc1/C=C/C(=O)N1CCC(C(N)=O)CC1 | inactive: 103% |
| CC1CCn2c(nc3cc(C(=O)NCCc4ccc(Cl)cc4)ccc32)C1 (stereo not given) | inactive: 124% |
| CC(C)CN(CCCNC(=O)Cn1ncc2c3ccccc3n(C)c2c1=O)CC(C)C | inactive: 82% |
| Cc1ccc(CNC(=O)c2cc3c(s2)-c2ccccc2SC3)cc1 | inactive: 120% |
| CCOC(=O)c1cc(-c2ccccc2)n(CC(=O)NC(C)c2ccccc2)c1C (stereo not given) | inactive: 81% |
| COc1ccc(Cl)cc1NC(=O)CCS(=O)(=O)c1nc(-c2cccs2)cc(C(F)(F)F)n1 | inactive: 63% |

| SMILES | survival |
| --- | --- |
| CCOC(=O)c1ccc(NC(=O)Nc2c[nH]c(=O)[nH]c2=O)cc1 | inactive: 125% |
| CCc1ccc(OC(C)C(=O)N2CCC(c3nc4ccccc4s3)CC2)cc1 (stereo not given) | inactive: 35% |
| CC(C)COc1ccc(C(=O)Nc2cccc(-c3nc4ccccc4[nH]3)c2)cc1 | inactive: 60% |
| Cc1cc(C)cc(NC(=O)CCS(=O)(=O)c2cc3c4c(c2)CCN4C(=O)CC3)c1 | inactive: 81% |
| CCN(CC)Cn1nc(-c2ccccc2Cl)oc1=S | inactive: 114% |
| CCn1cc(C(=O)N2CCN(c3cccc(C(F)(F)F)c3)CC2)c2cc(OC)c(OC)cc2c1=O | inactive: 160% |
| CN(Cc1ccccc1)Cn1[nH]c(=O)ccc1=O | inactive: 101% |
| COc1ccccc1-c1cc2nc(C)c(CCC(=O)Nc3ccc(Br)c(C)c3)c(C)n2n1 | inactive: 69% |
| O=C(NC1(C(F)(F)F)C(=O)Nc2c1c(=O)[nH]c(=O)n2CCc1ccccc1)c1ccc(Cl)cc1Cl (stereo not given) | inactive: 69% |
| CCOc1ccccc1NC(=O)C1CCCN(S(=O)(=O)c2c(C)[nH]c(=O)[nH]c2=O)C1 (stereo not given) | inactive: 79% |
| CCOc1ccc(/C=C(\C#N)c2nc3ccccc3c(=O)[nH]2)cc1OC | inactive: 90% |
| Cc1ccc(N2CC(NC(=O)Cc3cccs3)CC2=O)cc1C (stereo not given) | inactive: 19% |
| CCOC(=O)N1CCc2c(sc(NCc3cccc(F)c3)c2C(=O)Nc2ccccc2OCC)C1 | inactive: 72% |
| Cc1nc(N2C(=O)c3oc4ccccc4c(=O)c3C2c2cccc(OCCC(C)C)c2)sc1C (stereo not given) | inactive: 69% |
| CCOc1ccc(-c2nonc2NC(=O)c2oc3ccc(Br)cc3c2C)cc1 | inactive: 75% |
| O=C(CSc1nnc(-c2ccccc2)c(-c2ccccc2)n1)NC1CCCCC1 | inactive: 94% |
| COc1ccc2c(c1)CCc1c(C(=O)Nc3ccc(F)c(Cl)c3)noc1-2 | inactive: 83% |
| CCc1nc2ccc(C(=O)N3CCN(c4ccccc4)CC3)cc2nc1CC | inactive: 132% |
| COC(=O)c1nnn(CC(=O)NC(=O)Nc2cccc(C)c2C)c1C(=O)OC | inactive: 78% |
| COc1ccc(S(=O)(=O)N(CCc2ccccc2)CC(=O)Nc2ccc(C)c(C)c2)cc1OC | inactive: 71% |
| CCC(=O)Nc1nnc(SCc2cc(=O)c3cc(C)ccc3[nH]2)s1 | inactive: 73% |
| CCOc1cc(-c2nnc(SCC(=O)Nc3ccc(F)c(F)c3)nc2-c2ccc(OC)c(OCC)c2)ccc1OC | inactive: 72% |
| O=C(c1ccccc1Cl)n1cc(Cl)cn1 | inactive: 100% |

| SMILES | survival |
| --- | --- |
| O=C(Nc1cccc(-c2nc3ccccc3o2)c1)c1ccc(-c2ccc(Br)cc2)o1 | inactive: 57% |
| Cc1csc(-c2cc3ccccc3oc2=O)n1 | inactive: 111% |
| COc1ccc(CNc2oc(C)nc2C#N)cc1 | inactive: 99% |
| COc1ccc(C(C(=O)NC2CCCC2)N(Cc2ccco2)C(=O)Cn2nc(C(F)(F)F)c3c2CCCC3)cc1 (stereo not given) | inactive: 111% |
| O=S(=O)(Nc1ccc(-c2ccc(N3CCCC3)nn2)cc1)c1ccc(Cl)cc1 | inactive: 73% |
| Cc1c(C(=O)OC2CCCC2)[nH]c2c1C(=O)CC(c1ccc(Cl)cc1)C2 (stereo not given) | inactive: 87% |
| CCOc1ccc(CNS(=O)(=O)c2c(C(=O)N3CCC(C)CC3)c(C)n(C)c2C)cc1OC | inactive: 71% |
| CC(=O)N1CCc2c(sc3c2c(=O)n(-c2ccccc2)c(=O)n3CC(=O)Nc2cccc(C)c2)C1 | inactive: 91% |
| CC(C)N(C(=O)CSc1nc2ccc(Cl)cc2[nH]1)c1ccccc1 | inactive: 81% |
| COc1ccccc1CNC(=O)CCCc1nnc2n(CC(C)C)c(=O)c3sccc3n12 | inactive: 105% |
| COc1ccccc1CNC(=O)CCC1N=C2c3ccccc3N=C(SCc3cccc(Cl)c3)N2C1=O (stereo not given) | inactive: 82% |
| Nc1cccc2c1C(=O)N(CC(=O)O)C2=O | inactive: 104% |
| Nc1nc2cc3c(cc2s1)OCCO3 | inactive: 113% |
| CC1CCCN(S(=O)(=O)c2ccc(N)cc2)C1 (stereo not given) | inactive: 109% |
| O=C(c1ccc(F)cc1)N1c2nc(-c3ccco3)nn2C2(CCCCC2)[C@@H]2CCCC[C@@H]21 | inactive: 82% |
| Cc1cc(=O)[nH]c(SC(C)C(=O)Nc2ccccc2)n1 (stereo not given) | inactive: 102% |
| CCOc1ccc(OCC)c(NS(=O)(=O)c2cc(Br)cc3c2N(C(C)=O)C(C)C3)c1 (stereo not given) | inactive: 73% |
| COc1ccc(-c2cc3nc(-c4ccc(C)cc4)cc(C(F)(F)F)n3n2)cc1 | inactive: 121% |
| CCn1c(=O)c2cc(C(=O)NCCc3cc(OC)ccc3OC)sc2c2ccccc21 | inactive: 61% |
| CCCCN(CC)CCNC(=O)c1cc2c(=O)oc3ccc(C)cc3c2s1 | inactive: 84% |
| Cc1cccc(Cn2cc(C(=O)Nc3ccc(F)c(C(F)(F)F)c3)ccc2=O)c1 | inactive: 128% |

Source: PubChem BioAssay AID463173 (ICCB-Longwood Screening Facility, Harvard Medical School, 2010)
